Source: the supplement of paper PMC3722116

Legend:
[1] = compound: T1, CCN(CC)CCCC(C)Nc1ccnc2cc(Cl)ccc12 [chloroquine]; assay: slope of the dose-response curve (dimensionless); higher = steeper concentration-effect curve
Procedure: (§1)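 Hypoxanthine uptake by fresh isolates, duplicate serial dilutions, 24 h of drug plus 18 h after the label; sigmoid fit per isolate.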

[2] = compound: T2, C[C@H]1[C@H](OC(=O)CCC(=O)O)O[C@@H]2O[C@@]3(C)CC[C@H]4[C@H](C)CC[C@@H]1[C@@]24OO3 [artesunate]; assay: as above
Procedure: as §1

[3] = compound: T3, CCCCN(CCCC)CC(O)c1cc(Cl)cc2c1-c1ccc(Cl)cc1/C2=C/c1ccc(Cl)cc1 [lumefantrine]; assay: as above
Procedure: as §1

[4] = compound: T4, OC(c1cc(C(F)(F)F)nc2c(C(F)(F)F)cccc12)C1CCCCN1 [mefloquine]; assay: as above
Procedure: as §1

[5] = compound: T1, chloroquine
Procedure: as §1

[6] = compound: T2, artesunate
Procedure: as §1

[7] = compound: T3, lumefantrine
Procedure: as §1

[8] = compound: T4, mefloquine
Procedure: as §1

Test System	slope [1]	slope [2]	slope [3]	slope [4]	EC50 of parasite growth [5]	EC50 of parasite growth [6]	EC50 of parasite growth [7]	EC50 of parasite growth [8]
Plasmodium falciparum isolate 48 (pfmdr1 allele: 86N, 1042N, pfmdr1 copies: 1)	4.8	4.59	1.72	2.12	0.205 µg/mL	0.000577 µg/mL	0.018 µg/mL	0.0198 µg/mL
Plasmodium falciparum isolate 343 (pfmdr1 allele: 1042D, pfmdr1 copies: 1)	6.45	9.98	2.3	2.41	0.0483 µg/mL	0.00143 µg/mL	0.013 µg/mL	0.018 µg/mL
Plasmodium falciparum isolate 259 (pfmdr1 allele: 86N, 1042N, pfmdr1 copies: 3)	3.27	7.81	2.58	3.06	0.158 µg/mL	0.0014 µg/mL	0.0145 µg/mL	0.0627 µg/mL
Plasmodium falciparum isolate 312 (pfmdr1 allele: 86N, 1042N, pfmdr1 copies: 1)	3.48	7.57	2.7	2.95	0.133 µg/mL	0.000638 µg/mL	0.033 µg/mL	0.0342 µg/mL
Plasmodium falciparum isolate 408 (pfmdr1 allele: 86N, 1042N, pfmdr1 copies: 1)	3.68	2.79	1.57	3.85	0.0374 µg/mL	0.000236 µg/mL	0.0243 µg/mL	0.0355 µg/mL
Plasmodium falciparum isolate 139 (pfmdr1 allele: 86N, 1042N, pfmdr1 copies: 1)	3.98	6.65	2.17	2.43	0.168 µg/mL	0.000711 µg/mL	0.0291 µg/mL	0.0314 µg/mL
Plasmodium falciparum isolate 250 (pfmdr1 allele: 86N, 1042N, pfmdr1 copies: 1)	4.89	3.96	2.2	2.52	0.113 µg/mL	0.000499 µg/mL	0.00699 µg/mL	0.0128 µg/mL
Plasmodium falciparum isolate 182 (pfmdr1 allele: 86N, 1042N, pfmdr1 copies: 1)	6.6	10	1.37	2.71	0.195 µg/mL	0.0021 µg/mL	0.0175 µg/mL	0.0339 µg/mL
Plasmodium falciparum isolate 303 (pfmdr1 allele: 86N, 1042N, pfmdr1 copies: 1)	3.39	6.02	2.89	2.32	0.0325 µg/mL	0.000302 µg/mL	0.0181 µg/mL	0.022 µg/mL
Plasmodium falciparum isolate 73 (pfmdr1 allele: 86N, 1042N, pfmdr1 copies: 2)	2.91	4.86	2.37	1.85	0.0506 µg/mL	0.000431 µg/mL	0.0145 µg/mL	0.0149 µg/mL
Plasmodium falciparum isolate 181 (pfmdr1 allele: 86N, 1042N, pfmdr1 copies: 1)	6.18	4.64	3.01	2.8	0.0935 µg/mL	0.000958 µg/mL	0.0236 µg/mL	0.0248 µg/mL
Plasmodium falciparum isolate 363 (pfmdr1 allele: 86N, 1042N, pfmdr1 copies: 1)	4.08	5.07	1.9	2.81	0.091 µg/mL	0.000913 µg/mL	0.0257 µg/mL	0.0344 µg/mL
Plasmodium falciparum isolate 471 (pfmdr1 allele: 86N, 1042N, pfmdr1 copies: 2)	4.16	5.66	2.88	2.29	0.0841 µg/mL	0.00184 µg/mL	0.0294 µg/mL	0.0328 µg/mL
Plasmodium falciparum isolate 11 (pfmdr1 allele: 86N, 1042N, pfmdr1 copies: 1)	3.94	10	2.03	3.54	0.293 µg/mL	0.00197 µg/mL	0.0218 µg/mL	0.0418 µg/mL
Plasmodium falciparum isolate 244 (pfmdr1 allele: 86N, 1042N, pfmdr1 copies: 1)	3.43	5.55	2.18	3.56	0.121 µg/mL	0.00134 µg/mL	0.0149 µg/mL	0.0329 µg/mL
Plasmodium falciparum isolate 453 (pfmdr1 allele: 86N, 1042N, pfmdr1 copies: 1)	3.64	4.06	2.32	2.32	0.0551 µg/mL	0.00039 µg/mL	0.0101 µg/mL	0.00985 µg/mL
Plasmodium falciparum isolate 400 (pfmdr1 allele: 86N, 1042N, pfmdr1 copies: 1)	2.32	3.13	1.51	1.56	0.0566 µg/mL	0.00017 µg/mL	0.0103 µg/mL	0.00449 µg/mL
Plasmodium falciparum isolate 35 (pfmdr1 allele: 86N, 1042N, pfmdr1 copies: 1)	2.62	4.17	1.95	2.27	0.106 µg/mL	0.000364 µg/mL	0.0179 µg/mL	0.0267 µg/mL
Plasmodium falciparum isolate 318 (pfmdr1 allele: 86N, 1042N, pfmdr1 copies: 2)	2.64	8.85	1.2	2.36	0.0473 µg/mL	0.0018 µg/mL	0.231 µg/mL	0.0555 µg/mL
Plasmodium falciparum isolate 247 (pfmdr1 allele: 86N, 1042N, pfmdr1 copies: 2)	2.8	5.62	2.6	3.21	0.0975 µg/mL	0.000543 µg/mL	0.0174 µg/mL	0.0322 µg/mL
Plasmodium falciparum isolate 171 (pfmdr1 allele: 86N, 1042N, pfmdr1 copies: 1)	4.67	9.99	2.28	2.62	0.367 µg/mL	0.000523 µg/mL	0.0258 µg/mL	0.0384 µg/mL

Test System	slope [1]	slope [2]	slope [3]	slope [4]	EC50 of parasite growth [5]	EC50 of parasite growth [6]	EC50 of parasite growth [7]	EC50 of parasite growth [8]
Plasmodium falciparum isolate 376 (pfmdr1 allele: 86N, 1042N, pfmdr1 copies: 1)	10	5.51	3.16	2.86	0.281 µg/mL	0.000831 µg/mL	0.0141 µg/mL	0.0215 µg/mL
Plasmodium falciparum isolate 213 (pfmdr1 allele: 86N, 1042N, pfmdr1 copies: 1)	3.56	4.16	1.77	2.03	0.163 µg/mL	0.000322 µg/mL	0.0072 µg/mL	0.0175 µg/mL
Plasmodium falciparum isolate 332 (pfmdr1 allele: 86N, 1042N, pfmdr1 copies: 1)	3.98	5.19	2	3.89	0.151 µg/mL	0.00249 µg/mL	0.0429 µg/mL	0.0384 µg/mL
Plasmodium falciparum isolate 463 (pfmdr1 allele: 86N, 1042N, pfmdr1 copies: 1)	5.67	6.39	2.49	3.53	0.124 µg/mL	0.000404 µg/mL	0.0181 µg/mL	0.0274 µg/mL
Plasmodium falciparum isolate 149 (pfmdr1 allele: 86N, 1042N, pfmdr1 copies: 2)	3.09	6.46	3.14	3.21	0.0592 µg/mL	0.000644 µg/mL	0.0281 µg/mL	0.0528 µg/mL
Plasmodium falciparum isolate 313 (pfmdr1 allele: 86N, 1042N, pfmdr1 copies: 1)	2.59	7.41	2.08	3.65	0.0616 µg/mL	0.00118 µg/mL	0.0214 µg/mL	0.0283 µg/mL
Plasmodium falciparum isolate 45 (pfmdr1 allele: 86N, 1042N, pfmdr1 copies: 1)	2.76	5.74	2.91	2.26	0.0744 µg/mL	0.00139 µg/mL	0.0489 µg/mL	0.0425 µg/mL
Plasmodium falciparum isolate 413 (pfmdr1 allele: 86N, 1042N, pfmdr1 copies: 2)	3.32	6.33	2.12	2.84	0.133 µg/mL	0.00115 µg/mL	0.0146 µg/mL	0.0741 µg/mL
Plasmodium falciparum isolate 111 (pfmdr1 allele: 86N, 1042N, pfmdr1 copies: 1)	4.45	4.37	2.19	2.01	0.0984 µg/mL	0.00112 µg/mL	0.0285 µg/mL	0.0134 µg/mL
Plasmodium falciparum isolate 17 (pfmdr1 allele: 86N, 1042N, pfmdr1 copies: 1)	3.32	6.92	2.51	2.51	0.0933 µg/mL	0.0006 µg/mL	0.0379 µg/mL	0.0262 µg/mL
Plasmodium falciparum isolate 214 (pfmdr1 allele: 86N, 1042N, pfmdr1 copies: 2)	3.66	10	2.42	3.37	0.13 µg/mL	0.00107 µg/mL	0.0515 µg/mL	0.0832 µg/mL
Plasmodium falciparum isolate 446 (pfmdr1 allele: 86N, 1042N, pfmdr1 copies: 2)	4.3	7.27	2.81	2.89	0.0673 µg/mL	0.000484 µg/mL	0.0204 µg/mL	0.0411 µg/mL
Plasmodium falciparum isolate 255 (pfmdr1 allele: 86N, 1042N, pfmdr1 copies: 2)	3.08	10	3.38	3.5	0.135 µg/mL	0.000965 µg/mL	0.0819 µg/mL	0.119 µg/mL
Plasmodium falciparum isolate 84 (pfmdr1 allele: 86N, 1042N, pfmdr1 copies: 1)	2.03	2.99	1.03	1.59	0.0933 µg/mL	0.000327 µg/mL	0.00357 µg/mL	0.00325 µg/mL
Plasmodium falciparum isolate 43 (pfmdr1 allele: 86N, 1042N, pfmdr1 copies: 1)	4.04	5.95	1.28	1.73	0.173 µg/mL	0.00033 µg/mL	0.0133 µg/mL	0.00665 µg/mL
Plasmodium falciparum isolate 374 (pfmdr1 allele: 1042D, pfmdr1 copies: 1)	4.67	5.89	2.45	2.39	0.256 µg/mL	0.000233 µg/mL	0.00278 µg/mL	0.00953 µg/mL
Plasmodium falciparum isolate 297 (pfmdr1 allele: 86N, 1042N, pfmdr1 copies: 1)	4.9	3.26	2.02	1.69	0.0856 µg/mL	0.000308 µg/mL	0.0148 µg/mL	0.0102 µg/mL
Plasmodium falciparum isolate 476 (pfmdr1 allele: 86N, 1042N, pfmdr1 copies: 1)	9.22	9.93	2.61	3.2	0.0839 µg/mL	0.00167 µg/mL	0.0274 µg/mL	0.0386 µg/mL
Plasmodium falciparum isolate 327 (pfmdr1 allele: 86Y, pfmdr1 copies: 1)	3.93	3.92	2.4	2.8	0.0776 µg/mL	0.000193 µg/mL	0.00329 µg/mL	0.00371 µg/mL
Plasmodium falciparum isolate 319 (pfmdr1 allele: 86N, 1042N, pfmdr1 copies: 1)	2.36	3.34	2.42	2.23	0.14 µg/mL	0.000399 µg/mL	0.0222 µg/mL	0.0133 µg/mL

Growth of fresh clinical P. falciparum isolates by hypoxanthine uptake over 42 h; for most isolates 1.6-1,647 nM mefloquine, 0.044-87 nM artesunate, 10-10,256 nM chloroquine, 2.4-236 nM lumefantrine. EC50, lower = more sensitive; slope from the same fit, higher = steeper. No active / inactive call. Fits with a coefficient of variation above 100% are not listed here; 15-28% of fits exceed 15%. Isolates are numbered anew.
